Data reported in publication PMC10668032.
The other results are listed elsewhere or left out. At the low end of the ranking the order means little.

target: SIX1 homeodomain (reference allele) (UniProt Q15475); test: universal protein binding microarray; settings: Universal all-10-mer PBM (8x60K, AMADID 030236), 300 nM GST-tagged protein, Alexa Fluor 488 anti-GST; buffer, salt, pH and temperature not stated; high values mean tight binding; most listed sequences are background and not binding sites; double strand, one strand shown

Sequence | binding signal [E-score]
AGACATCG | -0.0476
GTCTACCA | 0.0725
AAACTGCT | -0.168
CGTACGAG | -0.244
ATATGCTG | 0.213
CGTTGTAC | -0.115
AATATAAT | 0.0774
AGAGTAGG | 0.148
GAAAATTC | -0.235
CTTTCGAA | -0.252
AGTAGAGG | -0.126
GATGCGAC | 0.139
AGGGAGTC | -0.127
CCCTCCTA | 0.0145
GCTGGGTA | 0.239
GCGAGTCC | -0.21
CAAGTATC | 0.378
AGACTGTC | -0.211
ATGCTGTC | -0.0494
CACATAAA | -0.0841
ATCCGTTG | 0.285
CTGGCTAA | -0.101
CTTTGATC | 0.213
ATACCCAC | 0.392
TAAGATCA | 0.293

Sequence | binding signal [E-score]
GGTTTCTA | 0.143
CATCATTA | 0.0734
AACCTCGT | 0.0559
ATCCACTC | 0.234
CGGATATA | 0.422
AACCGTTC | -0.109
AACGTTAG | -0.243
AGGAATCA | -0.0636
ACAAACCG | 0.0182
TACCTGAA | 0.0348
GAAGACGC | -0.146
ACACAAGA | -0.114
CCCCGCCG | 0.257
CAAATTTA | -0.209
CGTGCCTA | -0.28
TACGGGGA | -0.0279
CCTCTCCA | -0.0391
ATGGGTTG | -0.0621
CTGATCCC | 0.416
CTCTTTTA | -0.189
CGTGCTCA | 0.0135
AGACCCAA | -0.225
GTAGAACA | -0.0637
ACCTGAGA | 0.158
AGTACTGG | -0.153

Sequence | binding signal [E-score]
GTCCAAAC | -0.317
CTTGAAAA | -0.242
AGTAGAAA | -0.0482
TACCCAAA | -0.00297
CCAGCCCC | -0.0655
AACGACTG | -0.169
CACTTAGC | -0.173
CGGCACGA | 0.143
AGGCCATC | -0.115
CGGGCATA | 0.108
ATTTCTTA | -0.051
ACATGCTC | -0.249
AACCCCTC | 0.098
CGCTTGCC | -0.199
CTAGCATC | -0.0401
AATGCGAA | -0.296
GACATGCA | -0.0253
CCTCCTCA | 0.0671
GTGACCCA | -0.0867
TACTCCAA | 0.142
CGGCACCC | -0.147
CGAAGGAC | -0.291
CTTGGTTC | -0.11
CGTCCGAA | -0.23
CGTGATGA | -0.0914

Sequence | binding signal [E-score]
AGGACTAT | 0.0575
CGCACCTA | -0.00069
CCTCGAAA | -0.131
GCGATTCA | -0.105
CGAGGTCC | -0.322
AAATTCTT | -0.305
CTAGAAGC | -0.0514
CATTTCAA | -0.138
AAGTCACA | -0.239
CAACCGAA | -0.0628
AATCGATT | -0.138
GTGCTGCA | -0.0432
AAAGACTA | -0.157
GGCGGTGA | 0.0301
GGTATGAA | 0.224
AGGTACAC | 0.0753
ATTAAGCC | 0.0815
CGTCGCTA | -0.115
AGGAGTAG | -0.086
CATTGTTA | -0.0908
AGTCGACC | 0.00222
CATGATTC | 0.016
AATCAAGT | -0.271
AAGGTTAG | -0.234
ACGGTCGA | -0.0318

Sequence | binding signal [E-score]
AACCGTGT | -0.0205
TGCACAAA | -0.195
CTATCCAA | 0.0851
TAGAAGCA | -0.0955
CGAGCCAG | 0.0485
CAAGACCC | -0.108
CAAGATTA | -0.0429
AGTATTCC | 0.121
ATGCCAAA | -0.198
CGAATCAC | -0.117
AGGTTAGC | -0.232
GTACCGAA | -0.276
GGAACGCA | -0.134
TCACGAAA | -0.126
ACTAGTCG | -0.107
CAAAAAGC | -0.115
ATAGGTCC | 0.105
CCGTACGG | 0.02
AAGGCCAC | -0.277
TAAGTAAA | -0.212
CCGTTCAC | -0.143
CTGTGTTA | -0.0642
AGACTACT | -0.175
CTCCCGAA | -0.00145
TACCGTGA | 0.155

Sequence | binding signal [E-score]
ACTACCTC | -0.0464
AGGACGAC | -0.144
ATACGTTC | 0.292
AATTAGTG | -0.0766
ACACAGCC | -0.0914
CTGATACC | 0.484
GAGTAGTA | 0.111
CCTATTTA | -0.0475
GTCCTAAC | -0.181
CGACGACC | -0.218
GAGCAATC | -0.0924
TATAGTCA | 0.0687
AATAAAAC | -0.159
GGAGCGCA | -0.249
CTGGCAAA | -0.294
ACCCCAGT | 0.179
CCTGGTAG | -0.0844
GCCGGTCC | -0.19
ATAACTCC | 0.0181
GACTATGA | -0.0399
CACTCGCA | -0.0481
CATAGTCG | -0.139
AAGGGGCC | -0.22
AGCCTGGA | -0.176
CTCTCGAA | -0.229

Sequence | binding signal [E-score]
TACGTGAA | 0.0221
GTAATAAA | -0.123
ATAGCCGA | 0.149
AACCATCT | 0.154
CGCACTCA | 0.015
GCTGTTAC | -0.382
AGACCACC | -0.17
GTTCGAAC | -0.00999
CGTTCCTA | -0.101
AGGAGGAA | -0.166
GACTCAAA | -0.141
ACTTGAAG | -0.112
ACTTGTCA | -0.0982
CATCAACG | -0.148
TAGTCCGA | -0.182
CCGGAACA | -0.12
TATTTAAA | 0.133
AGGTCGCC | -0.177
AGGGACAT | 0.0455
AGTTTGTA | -0.198
ATTGCTTA | 0.0943
GACCTTCA | -0.193
